Test results taken from patent EP4717714A1 (Shanghai Junshi Biosciences Co., Ltd., dated 2026).

Legend:
[1] = target: T1, Recombinant human VEGFA (Sino Biological, catalog number 11066-HNAB) (human); experiment: BLI (Octet RED96e), antibody captured at 5 µg/mL, VEGFA at 50 and 25 nM
T1 construct: also called VEGF antigen; Human/Cynomolgus VEGF/VEGFA/VEGF165 Protein
T1 chain: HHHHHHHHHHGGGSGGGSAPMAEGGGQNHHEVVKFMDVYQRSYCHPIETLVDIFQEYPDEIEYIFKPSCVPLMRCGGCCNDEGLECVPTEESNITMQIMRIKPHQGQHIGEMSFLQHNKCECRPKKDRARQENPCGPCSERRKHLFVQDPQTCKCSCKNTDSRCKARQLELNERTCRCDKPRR

[2] = target: T1, Recombinant human VEGFA (Sino …); experiment: BLI (Octet RED96e), told of the group

Kd [1]: < 26.6 pM
koff [1]: < 1e-05 s⁻¹
kon [1]: 375000 M⁻¹ s⁻¹
Kd [2]: < 500 pM
B1: DotAb4 (Fc fusion)
chain: EVQLVESGGGLVQPGGSLRLSCAISGFSLAATDIDWVRQAPGKGLEWVARIFSPSDFTDYADSVKGRFTISADTSKNTVYLQMNSLRAEDTAVYYCGRPDTYAYNIFLDTPTYNALHYRGQGTLVTVSSGGGGS[human IgG4 Fc with S228P (EU numbers) not given here]
notes: also called Antibody DotAb4; anti-VEGFA nanobody DotAb4
